Reference: the RNAGym collection of RNA variant scans (doi:10.7554/elife.90254)
Read counts are not given, so values of variants with three or more changes are uncertain.

B1: LINE1-mini (parent)
chain: GGCAGAGCUCAACACAGCGUGGCAAAGUGGCUGUGGCUAGACUGCC

Variants of: B1
Experiment: self-cleavage, relative activity (ratio to wild type); higher = more cleavage; in vitro, sequencing; the parent is a self-cleaving ribozyme

Variant	self-cleavage
GGCAGAGCUCAACACAGCGUGGCUAACUGGCUGUGGGUAGGCUGCC [A24U G27C C37G A41G]	0.01
GGCAGAGCUCAACACAGCGUGGCUAAGUGGCCAUGGCUAGACGGCC [A24U U32C G33A U43G]	0.01
GGCAGAGCUCAACACAGCGUGGCUAAGUGGGUGUGGCUAGACUGCU [A24U C31G C46U]	0.02
GGCAGAGCUCAACACAGCGUGGCUAUGUGGCUGCGGCUAGACUGCC [A24U A26U U34C]	0.07
GGCAGAGCUCAACACAGCGUGGCACAGUGGCUGUGGCUUGACUGCA [A25C A39U C46A]	0.93
GGCAGAGCUCAACACAGCGUGGCACAGUGGCUGUGGGUAGACUCCC [A25C C37G G44C]	0.03
GGCAGAGCUCAACACAGCGUGGCUAAGUGGCUGUGGCUACACUGUC [A24U G40C C45U]	0.24
GGCAGAGCUCAACACAGCGUGGCUAAGUGGCUGUGGCUCAACUGCC [A24U A39C G40A]	0.1
GGCAGAGCUCAACACAGCGUGGCACAGUGGCUGUGGCUAUACUCCC [A25C G40U G44C]	0.04
GGCAGAGCUCAACACAGCGUGGCUAAGUUGCUAUGGCUUGACUGCC [A24U G29U G33A A39U]	0.03
GGCAGAGCUCAACACAGCGUGGCUAAGAGGCGGUGGCUAGACUGCC [A24U U28A U32G]	0.03
GGCAGAGCUCAACACAGCGUGGCACAGUGGCUGUAGCUAGUCUGCA [A25C G35A A41U C46A]	0.08
GGCAGAGCUCAACACAGCGUGGCUGAGUGGAUGAGGCUUGACUGCC [A24U A25G C31A U34A A39U]	0.01
GGCAGAGCUCAACACAGCGUGGCUAAGUGUCUGUCGCUAGACUGCC [A24U G30U G35C]	0.06
GGCAGAGCUCAACACAGCGUGGCUUAGUGGCUGUGGCUAGACUGGC [A24U A25U C45G]	0.17
GGCAGAGCUCAACACAGCGUGGCUAAGUGGCUGUGACUAAAGUGCC [A24U G36A G40A C42G]	0.07
GGCAGAGCUCAACACAGCGUGGCACACUGGCUUUGGCUAGACUGCC [A25C G27C G33U]	0.03
GGCAGAGCUCAACACAGCGUGGCUAAGUGGGUGUGGCUAGAAUGCC [A24U C31G C42A]	0.01
GGCAGAGCUCAACACAGCGUGGCACAGUGGCUGUGGCGACACUGCC [A25C U38G G40C]	0.01

Variant	self-cleavage
GGCAGAGCUCAACACAGCGUGGCAGUGUGGCUGUGGAUAGACUGCC [A25G A26U C37A]	0.14
GGCAGAGCUCAACACAGCGUGGCUAAGCGGCUGGGGCUAGACUGCC [A24U U28C U34G]	0.25
GGCAGAGCUCAACACAGCGUGGCUAAGUGCUUGUGGCUAGACUGAC [A24U G30C C31U C45A]	0.04
GGCAGAGCUCAACACAGCGUGGCUAAUUGGCUCUGGGAAGACUGCC [A24U G27U G33C C37G U38A]	0.04
GGCAGAGCUCAACACAGCGUGGCACAGUAGAUGUGGCUAGACUGCC [A25C G29A C31A]	0.27
GGCAGAGCUCAACACAGCGUGGCACAGUGGCUGUGGCUAAAAUGCC [A25C G40A C42A]	0.34
GGCAGAGCUCAACACAGCGUGGCUAACUGGCUGUGGCUAUACUGCC [A24U G27C G40U]	0.11
GGCAGAGCUCAACACAGCGUGGCUAAGAGGCUGUGGCCAGACUGCC [A24U U28A U38C]	0.25
GGCAGAGCUCAACACAGCGUGGCUAAGUGGCUGUUGCUAGACUGCG [A24U G35U C46G]	0.09
GGCAGAGCUCAACACAGCGUGGCAGUGUAGCUGUGGCUAGAUUGCC [A25G A26U G29A C42U]	0.13
GGCAGAGCUCAACACAGCGUGGCUAAGUGGCUGUAGCUAAACUGCC [A24U G35A G40A]	0.05
GGCAGAGCUCAACACAGCGUGGCACAGUAGCUGUGGCUAGGCUGCC [A25C G29A A41G]	0.19
GGCAGAGCUCAACACAGCGUGGCACAGUCGCUCUGGCUGGACUGCC [A25C G29C G33C A39G]	0
GGCAGAGCUCAACACAGCGUGGCUAAGUGGCUGCGACUAGACUGCC [A24U U34C G36A]	0.06
GGCAGAGCUCAACACAGCGUGGCACGGUGGCUGAGGAUAGACUGCC [A25C A26G U34A C37A]	0.02
GGCAGAGCUCAACACAGCGUGGCUACGUGGCUGUGGCUAGAUUGCC [A24U A26C C42U]	0.66
GGCAGAGCUCAACACAGCGUGGCUGGGUGGCUGUGGCGAGACUGCC [A24U A25G A26G U38G]	0.02
GGCAGAGCUCAACACAGCGUGGCUAAGUGGCUGUGGCUAGAAUACC [A24U C42A G44A]	0.06
GGCAGAGCUCAACACAGCGUGGCACAGUCGCUGUGGCUAGUCUGCC [A25C G29C A41U]	0.5

Variant	self-cleavage
GGCAGAGCUCAACACAGCGUGGCUAAGUGGUUGUGGCUAAACUGCC [A24U C31U G40A]	0.02
GGCAGAGCUCAACACAGCGUGGCUAAGUGGCUGUGGCCAGUCUGCC [A24U U38C A41U]	0.3
GGCAGAGCUCAACACAGCGUGGCUUAGAGGCUGUGGUUAGACUGAC [A24U A25U U28A C37U C45A]	0.01
GGCAGAGCUCAACACAGCGUGGCACAGUUGCUGAGGGUAGACUGCC [A25C G29U U34A C37G]	0.02
GGCAGAGCUCAACACAGCGUGGCUAAGUGGUUGUGGCUAGACUUCC [A24U C31U G44U]	0.04
GGCAGAGCUCAACACAGCGUGGCUAAGUGUCUGUGGCUAGGCUGCC [A24U G30U A41G]	0.11
GGCAGAGCUCAACACAGCGUGGCACAGUGGUAGUGGUUAGACUGCC [A25C C31U U32A C37U]	0.12
GGCAGAGCUCAACACAGCGUGGCUAAGUGGCUGUGGCAAGAGUGCC [A24U U38A C42G]	0
GGCAGAGCUCAACACAGCGUGGCACAGUGGCUGUGGCGAGACUGAC [A25C U38G C45A]	0.02
GGCAGAGCUCAACACAGCGUGGCUAAGUGGCACUGGCUUGACUGCC [A24U U32A G33C A39U]	0.02
GGCAGAGCUCAACACAGCGUGGCUAAGUGGCAGUGGGUAGACUGCC [A24U U32A C37G]	0.08
GGCAGAGCUCAACACAGCGUGGCACAGUGGCUGUUGCGAGACUGCC [A25C G35U U38G]	0.01
GGCAGAGCUCAACACAGCGUGGCUAAGAGGCUGUGGCUAGACUUCC [A24U U28A G44U]	0.28
GGCAGAGCUCAACACAGCGUGGCAGGGUGGCUGUGCCUAGACUACC [A25G A26G G36C G44A]	0.02
GGCAGAGCUCAACACAGCGUGGCACAGUGGAUGUGGCUAGACUGUC [A25C C31A C45U]	0.01
GGCAGAGCUCAACACAGCGUGGCACAGUCGCUGUGGCAAGACUGCC [A25C G29C U38A]	0.13
GGCAGAGCUCAACACAGCGUGGCUAAGUGUCUGUGGCUUGACUGCC [A24U G30U A39U]	0.9
GGCAGAGCUCAACACAGCGUGGCUAAGUGGCUGUGGCUAGCGGGCC [A24U A41C C42G U43G]	0.2
